From patent US20260200947A1, “FUSED CYCLIC COMPOUNDS AND USE THEREOF” (Jacobio Pharmaceuticals Co., Ltd., priority 2022, published 2026)

Key:
[1] = test system: AsPC-1 cells (K-Ras G12D)

Molecule `C#Cc1c(F)ccc2cc(N)cc(-c3nc4c5c(nc(OCC67CCCN6CC(=CF)C7)nc5c3F)N3CCCOC[C@H]3CO4)c12` (stereo partly drawn) [Compound 5] has an IC50 [1] of 61.6 nM, an IC50 (SW620 cells (K-Ras G12V)) of 5.78 nM and an IC50 (AGS cells (K-Ras G12D)) of 9.12 nM.
